Experimental data as given in the antibiotic and cytotoxicity screens of Wong et al. (2023).
Some of the results follow.

The compounds below were run on HSkMC (human skeletal muscle cells) (assay: cytotoxicity call (relative viability < 0.9)). Conditions: 10 µM.
`C[C@@H]1CCCCO[C@H](CN(C)C(=O)NC2CCCCC2)[C@@H](C)CN([C@H](C)CO)C(=O)c2cc(NS(=O)(=O)c3ccc(Cl)cc3)ccc2O1` was tested, and the cytotoxicity call was “inactive”.
`O=C(NCc1ccccc1)C1=C[C@@H](c2ccc(Br)cc2)C[C@@H](OCc2ccc(CO)cc2)O1` was tested, and the cytotoxicity call was “inactive”.
With `C=CCOC(=O)[C@H]1[C@@H]2C(=O)O[C@@H](c3ccccc3)[C@@H](c3ccccc3)N2[C@@H](c2ccc(OCCOC(=O)[C@H]3C[C@H]4C(=O)N[C@@H](Cc5ccccc5)C(=O)N4[C@H]3c3cccc(OCCO)c3)cc2)[C@]12C(=O)Nc1ccccc12` the cytotoxicity call was “inactive”.
In the case of `C[C@@H]1CN([C@@H](C)CO)C(=O)Cc2cc(NS(=O)(=O)c3ccc(Cl)cc3)ccc2O[C@H]1CN(C)Cc1ccc(C(=O)Nc2ccccc2N)cc1`, the cytotoxicity call is reported as “inactive”.
With `N[C@@H](CCO)c1cccc(Cl)c1` the cytotoxicity call was “inactive”.
With `O=C(C[C@@H]1C[C@@H]2c3cc(NC(=O)Cc4ccncc4)ccc3O[C@@H]2[C@@H](CO)O1)NCCc1ccccc1` the cytotoxicity call was “inactive”.
With `COc1ccc(NC(=O)Nc2cccc3c2O[C@H](CN(C)Cc2ccc(C(F)(F)F)cc2)[C@@H](C)CN([C@@H](C)CO)C3=O)cc1` the cytotoxicity call was “inactive”.
`C[C@H](CO)N1C[C@H](C)[C@H](CN(C)C(=O)Nc2ccc3c(c2)OCO3)OCCCC[C@H](C)Oc2ccc(NC(=O)Nc3ccccc3)cc2C1=O` was tested, and the cytotoxicity call was “inactive”.
With `CC(O)(CN)C1CC1` (stereo not given) the cytotoxicity call was “inactive”.
For `COc1ccc(CN(C)C[C@H]2OCCCC[C@@H](C)Oc3ccc(NC(=O)C4CCCCC4)cc3C(=O)N([C@@H](C)CO)C[C@@H]2C)cc1`, the cytotoxicity call was “inactive”.
In the case of `C[C@@H]1CN([C@H](C)CO)C(=O)Cc2cc(NC(=O)Cn3cnnn3)ccc2O[C@@H]1CN(C)C(=O)Nc1ccccc1`, the cytotoxicity call is reported as “inactive”.
With `C[C@H](CO)N1C[C@H](C)[C@H](CN(C)Cc2cccc(C(F)(F)F)c2)Oc2ncc(-c3cccc(F)c3)cc2C1=O` the cytotoxicity call was “inactive”.
`COc1ccc(cc1)S(=O)(=O)N1C[C@]2(C1)CN([C@H](CO)c1c2c2ccc(cc2n1C)OC)C(=O)c1cccnc1` was tested, and the cytotoxicity call was “inactive”.
In the case of `C[C@@H]1CN([C@H](C)CO)C(=O)c2cc(C#CCN(C)C)cnc2O[C@H]1CN(C)C(=O)c1ccc2c(c1)OCO2`, the cytotoxicity call is reported as “inactive”.
For `COc1ccc(S(=O)(=O)N(C)C[C@@H]2Oc3ccc(NC(=O)c4ccncc4)cc3C(=O)N([C@@H](C)CO)C[C@H]2C)cc1`, the cytotoxicity call was “inactive”.
In the case of `COc1ccc(NC(=O)N(C)C[C@H]2Oc3ccc(NS(=O)(=O)c4c(C)noc4C)cc3CC(=O)N([C@@H](C)CO)C[C@@H]2C)cc1`, the cytotoxicity call is reported as “inactive”.
In the case of `N#Cc1cn(C2CCCCC2)c(=O)[nH]c1=O`, the cytotoxicity call is reported as “inactive”.
`Cc1ccc(S(=O)(=O)N(C)C[C@H]2Oc3ccc(NC(=O)NC(C)C)cc3CC(=O)N([C@@H](C)CO)C[C@@H]2C)cc1` was tested, and the cytotoxicity call was “inactive”.
In the case of `C#Cc1ccc(C(=O)NO)cc1`, the cytotoxicity call is reported as “inactive”.
`C[C@@H]1CN([C@@H](C)CO)C(=O)c2cc(NC(=O)Cc3ccccc3)ccc2O[C@@H](C)CCCCO[C@@H]1CN(C)C(=O)CCC(F)(F)F` was tested, and the cytotoxicity call was “inactive”.
With `C/C=C/c1ccc2c(c1)O[C@@H](CN(C)Cc1ccc(C(=O)O)cc1)[C@H](C)CN([C@@H](C)CO)S2(=O)=O` the cytotoxicity call was “inactive”.
With `C[C@@H](CN1CCCCC1)C(=O)NN` the cytotoxicity call was “inactive”.
In the case of `C[C@@H]1CN([C@@H](C)CO)C(=O)c2cc(NC(=O)NC3CCCCC3)ccc2O[C@@H]1CN(C)Cc1ccc(Cl)c(Cl)c1`, the cytotoxicity call is reported as “inactive”.
For `C[C@H](CO)N1C[C@H](C)[C@@H](CN(C)C(=O)Nc2cccc3ccccc23)Oc2ccc(NC(=O)Cc3cn(C)c4ccccc34)cc2C1=O`, the cytotoxicity call was “inactive”.
With `COc1cccc(NC(=O)N(C)C[C@@H]2Oc3ncc(C#Cc4cccnc4)cc3C(=O)N([C@H](C)CO)C[C@@H]2C)c1` the cytotoxicity call was “inactive”.
In the case of `Cc1noc(C)c1S(=O)(=O)Nc1ccc2c(c1)CC(=O)N([C@H](C)CO)C[C@H](C)[C@H](CN(C)S(=O)(=O)c1ccc(F)cc1)O2`, the cytotoxicity call is reported as “inactive”.
`C[C@H]1CN([C@@H](C)CO)S(=O)(=O)c2ccc(-c3cncnc3)cc2O[C@@H]1CN(C)C(=O)c1cccc(F)c1` was tested, and the cytotoxicity call was “inactive”.
With `COc1ccc(CN(C)C[C@H]2Oc3ccc(NC(=O)C4CC4)cc3CC(=O)N([C@@H](C)CO)C[C@H]2C)cc1` the cytotoxicity call was “inactive”.
In the case of `Cc1ccc(S(=O)(=O)Nc2cccc3c2O[C@@H](CN(C)S(=O)(=O)c2cccs2)[C@@H](C)CN([C@@H](C)CO)C3=O)cc1`, the cytotoxicity call is reported as “inactive”.
For `CC(C)NC(=O)Nc1ccc2c(c1)C(=O)N([C@@H](C)CO)C[C@@H](C)[C@@H](CN(C)S(=O)(=O)c1cccs1)O2`, the cytotoxicity call was “inactive”.
